# Source: the RNAGym collection of RNA variant scans (doi:10.1093/nar/gkz1192)
# Read counts are not given, so values of variants with three or more changes are uncertain.
# B1: CPEB3 Ribozyme (parent)
# chain: UAACAGGGGGCCACAGCAGAAGCGUUCACGUCGCAGCCCCUGUCAGAUUCUGGUGAAUCUGCGAAUUCUGCUGUAUAUCUC
# Variants of: B1
# Test: self-cleavage, relative activity (ratio to wild type); higher = more cleavage; in vitro, sequencing
# Procedure, shortened: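 Libraries of CPEB3 self-cleaving ribozyme mutants came from rounds of error-prone PCR and carried barcodes, which DNA sequencing matched to variants. In vitro transcription used T7 RNA polymerase at 37°C for 5 hours, with a further 15 min in DNase I before EDTA stopped the reaction; the ribozymes cleaved during both steps. The RNA was reverse transcribed with template switching and sequenced on Illumina. Relative activity is the cleaved/total read fraction of a variant divided by that of the unmutated ribozyme, averaged over three batches with at least 5 reads.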
row,Variant,self-cleavage
1,A13G U48C U60A A64G,0.15
2,A13U A21G A45G A56G,0.21
3,A13G C62G U76A,0.4
4,A13G A18G C40U A45G A47U U48C U66G,0.03
5,A13G U41A A65G,0.14
6,A13G U41C C68U,0.55
7,A13U A20U A47G U76C,0.27
8,A13G U51C U60A U67C A77G,0.14
9,A13U A18U U49C U58C A77U U78C,0.11
10,A13G U48C U80A,0.35
11,A13G U48C U80C,0.55
12,A13G G55U U67C,0.12
13,A13U A18U A35G G61C,0.34
14,A13G U26A U54A A65G C71A,0.22
15,A13G U25C U51A A56G U67C,0.04
16,A13G C44A A57G A65G,0.18
17,A13U A28G U41C C59G U78A,0.12
18,A13G U48C U60A C62A U72G,0.16
19,A13G G19C U66C,0.12
20,A13G G33A U41C A45U U54C U60A A64G,0.13
21,A13G A20U U54C A56G A57G,0.05

row,Variant,self-cleavage
1,A13G C40A U54C U69C U74C,0.14
2,A13G A18G C32A A64C U69C U72A,0.05
3,A13G A20G U26A U48C U60C,0.06
4,A13U A20G U41A A45G C59A U78A,0.06
5,A13G U41A U80C,0.55
6,A13G G19C U25C G46A,0.14
7,A13U A28G A57G,0.61
8,A13G A18G A35U U41C,0.1
9,A13U A20U U26A U31C U41C U54G,0.07
10,A13G A35U U54C,0.65
11,A13G A20G U26C U41C U60A A64U U67C,0.01
12,A13U A20U A28G A35G U76C A77U,0.24
13,A13G U25C U54C C62A,0.27
14,A13G A18G U31G U41A,0.26
15,A13G U26C U60A,0.37
16,A13G G36A U41C U49C U54C,0.17
17,A13G A20G G42U,0.17
18,A13G A45G U54C A65G,0.26
19,A13U A20U U78A,0.33
20,A13G A18U U31C U51C,0.08
21,A13G A35U A45G U69A U74C,0.17

row,Variant,self-cleavage
1,A13G A57G U60C,0.27
2,A13G A18U A28U U31A U76G U80C,0.06
3,A13G A20G U31C U72A,0.18
4,A13G A21G A28G,0.46
5,A13U A21G A35U C50A,0
6,A13G G63C A64G,0.73
7,A13U A18U G70C U80A,0.08
8,A13G C32U A65G U72C,0.11
9,A13G U54A U78C,1
10,A13G C14U C32U G55U,0.21
11,A13G A35G G46C U49C,0.05
12,A13G G30C U41A U43A U48A U74A,0.1
13,A13U A18G C44U A56G,0.17
14,A13G U41A A47G A57G A64G U69A A75G,0.09
15,A13G A20G C23U C29A U49A A56G,0.08
16,A13G U26A A56U,0.46
17,A13G C23A U25G G30A,0.35
18,A13G U49C U67C,0.14
19,A13G G19A A20U A35C,0.26
20,A13G C37G A57G,0.5
21,A13G G22A A35G U67C C79U,0.06

row,Variant,self-cleavage
1,A13U A18G A35U U49A A75G A77G,0.09
2,A13G U31G U41C U69A U74A U78C,0.14
3,A13U A15U U51C G53A U74C,0.77
4,A13U A21U U31A C34U U67C,0.04
5,A13G G16U A28U C40G U41C C50A U67A,0.04
6,A13G A35G U43C,0.13
7,A13G A56G U74C,0.67
8,A13G U26C G63C,0.41
9,A13G U43C A56U U80C,0.29
10,A13G U25C U60C A65G,0.18
11,A13G G52C U60C,0.29
12,A13G A20G A65G U72C,0.11
13,A13G C23A A35G,0.11
14,A13G A21G C50U U51C U60A U78C,0.15
15,A13U A18G U26C G33A U69C,0.12
16,A13G U31A U41C A64G,0.37
17,A13G A21G U25C U60C U78C,0.05
18,A13U A15U U25G,0.28
19,A13U A15U U41G A45U,0.06
20,A13G G19A C34A A45G U72A,0.04
21,A13G A21G U25C,0.31
